Measured values as given in the supplement of paper PMC11741623.
The list shows a part of the results. Interaction screen of human proteins with wild-type SARS-CoV-2 proteins by split-DHFR complementation in yeast, 1 µg/mL methotrexate. Value = fitness of the pair (three or more lineages) minus that of the viral protein without a human partner, on a scale set by negative (0) and fused positive (1) controls, mean of up to three cultures; higher = more likely to interact. Active = false discovery rate below 0.05 (one-sided t-test) in at least one culture. Nearly all pairs are not hits, and differences among them are mostly noise (correlation between cultures about 0.3); most hits were seen in one culture only. Human sequences are the Swiss-Prot entries looked up by gene name; the clone may be another isoform. NSP2 values were corrected by the authors for a growth advantage. Listed are human proteins with a hit and a random twelfth of the others.

Assays:
Assay in all cases: yeast fitness gain over the viral ORF with no human partner (scaled fitness); higher = more likely to interact
SARS-CoV-2 E = target: SARS-CoV-2 E
Procedure: (§1)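 Split mouse DHFR complementation in pooled diploid yeast: human ORFeome clones carry one fragment and viral ORFs the other; barcoded lineages compete in 1 µg/mL methotrexate and fitness is read by barcode sequencing in up to three cultures.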

SARS-CoV-2 M = target: SARS-CoV-2 M
Procedure: as §1

SARS-CoV-2 N = target: SARS-CoV-2 N
Procedure: as §1

SARS-CoV-2 NSP1 = target: SARS-CoV-2 NSP1
Procedure: as §1

SARS-CoV-2 NSP10 = target: SARS-CoV-2 NSP10
Procedure: as §1

SARS-CoV-2 NSP12 = target: SARS-CoV-2 NSP12
Procedure: as §1

SARS-CoV-2 NSP13 = target: SARS-CoV-2 NSP13
Procedure: as §1

SARS-CoV-2 NSP14 = target: SARS-CoV-2 NSP14
Procedure: as §1

SARS-CoV-2 NSP15 = target: SARS-CoV-2 NSP15
Procedure: as §1

SARS-CoV-2 NSP16 = target: SARS-CoV-2 NSP16
Procedure: as §1

SARS-CoV-2 NSP2 = target: SARS-CoV-2 NSP2
Procedure: as §1

SARS-CoV-2 NSP4 = target: SARS-CoV-2 NSP4
Procedure: as §1

SARS-CoV-2 NSP5 = target: SARS-CoV-2 NSP5
Procedure: as §1

SARS-CoV-2 NSP6 = target: SARS-CoV-2 NSP6
Procedure: as §1

SARS-CoV-2 NSP7 = target: SARS-CoV-2 NSP7
Procedure: as §1

SARS-CoV-2 NSP8 = target: SARS-CoV-2 NSP8
Procedure: as §1

SARS-CoV-2 NSP9 = target: SARS-CoV-2 NSP9
Procedure: as §1

SARS-CoV-2 ORF10 = target: SARS-CoV-2 ORF10
Procedure: as §1

SARS-CoV-2 ORF3A = target: SARS-CoV-2 ORF3A
Procedure: as §1

SARS-CoV-2 ORF3B = target: SARS-CoV-2 ORF3B
Procedure: as §1

SARS-CoV-2 ORF6 = target: SARS-CoV-2 ORF6
Procedure: as §1

SARS-CoV-2 ORF7A = target: SARS-CoV-2 ORF7A
Procedure: as §1

SARS-CoV-2 ORF7B = target: SARS-CoV-2 ORF7B
Procedure: as §1

SARS-CoV-2 ORF8 = target: SARS-CoV-2 ORF8
Procedure: as §1

SARS-CoV-2 ORF9B = target: SARS-CoV-2 ORF9B
Procedure: as §1

[1] = target: SARS-CoV-2 ORF9Bwu (the 73-codon ORF)
Procedure: as §1

SARS-CoV-2 S = target: SARS-CoV-2 S
Procedure: as §1

Measured: yeast fitness gain

B1: DEFB1, P60022 (protein)
chain: MRTSYLLLFTLCLLLSEMASGGNFLTGLGHRSDHYNCVSSGGQCLYSACPIFTKIQGTCYRGKAKCCK
inactive: SARS-CoV-2 E -0.0117 | SARS-CoV-2 M 0.0137 | SARS-CoV-2 N 0.0234 | SARS-CoV-2 NSP1 = -0.00714 | SARS-CoV-2 NSP10 = 0.0435 | SARS-CoV-2 NSP12 = 0.0453 | SARS-CoV-2 NSP13 = 0.0302 | SARS-CoV-2 NSP14 = 0.148 | SARS-CoV-2 NSP15 = 0.0906 | SARS-CoV-2 NSP16 = -0.0277 | SARS-CoV-2 NSP2 = -0.0904 | SARS-CoV-2 NSP4 = 0.0922 | SARS-CoV-2 NSP5 = 0.0446 | SARS-CoV-2 NSP6 = -0.0402 | SARS-CoV-2 NSP7 = 0.000926 | SARS-CoV-2 NSP8 = 0.0261 | SARS-CoV-2 NSP9 = 0.0721 | SARS-CoV-2 ORF10 = 0.0023 | SARS-CoV-2 ORF3A 0.058 | SARS-CoV-2 ORF3B 0.0533 | SARS-CoV-2 ORF6 = 0.0431 | SARS-CoV-2 ORF7A 0.00227 | SARS-CoV-2 ORF7B 0.0173 | SARS-CoV-2 ORF8 = 0.0111 | SARS-CoV-2 ORF9B 0.00947 | [1] 0.0407 | SARS-CoV-2 S 0.0739

B2: CHCHD6, Q9BRQ6 (protein)
chain: MGSTESSEGRRVSFGVDEEERVRVLQGVRLSENVVNRMKEPSSPPPAPTSSTFGLQDGNLRAPHKESTLPRSGSSGGQQPSGMKEGVKRYEQEHAAIQDKLFQVAKREREAATKHSKASLPTGEGSISHEEQKSVRLARELESREAELRRRDTFYKEQLERIERKNAEMYKLSSEQFHEAASKMESTIKPRRVEPVCSGLQAQILHCYRDRPHEVLLCSDLVKAYQRCVSAAHKG
inactive: SARS-CoV-2 E -0.0115 | SARS-CoV-2 M 0.0783 | SARS-CoV-2 N -0.0285 | SARS-CoV-2 NSP1 = 0.0111 | SARS-CoV-2 NSP10 = 0.0317 | SARS-CoV-2 NSP12 = -0.00604 | SARS-CoV-2 NSP13 = 0.0317 | SARS-CoV-2 NSP14 = -0.116 | SARS-CoV-2 NSP15 = -0.0703 | SARS-CoV-2 NSP16 = 0.0331 | SARS-CoV-2 NSP2 = -0.14 | SARS-CoV-2 NSP4 = -0.0179 | SARS-CoV-2 NSP5 = 0.0874 | SARS-CoV-2 NSP6 = 0.0503 | SARS-CoV-2 NSP7 = -0.063 | SARS-CoV-2 NSP8 = -0.0645 | SARS-CoV-2 NSP9 = -0.0482 | SARS-CoV-2 ORF10 = 0.0256 | SARS-CoV-2 ORF3A 0.0656 | SARS-CoV-2 ORF3B -0.0221 | SARS-CoV-2 ORF6 = 0.0804 | SARS-CoV-2 ORF7A -0.0555 | SARS-CoV-2 ORF7B -0.00396 | SARS-CoV-2 ORF8 = 0.0212 | SARS-CoV-2 ORF9B 0.0105 | [1] 0.0534 | SARS-CoV-2 S -0.0911

B3: WARS2, Q9UGM6 (protein)
chain: MALHSMRKARERWSFIRALHKGSAAAPALQKDSKKRVFSGIQPTGILHLGNYLGAIESWVRLQDEYDSVLYSIVDLHSITVPQDPAVLRQSILDMTAVLLACGINPEKSILFQQSQVSEHTQLSWILSCMVRLPRLQHLHQWKAKTTKQKHDGTVGLLTYPVLQAADILLYKSTHVPVGEDQVQHMELVQDLAQGFNKKYGEFFPVPESILTSMKKVKSLRDPSAKMSKSDPDKLATVRITDSPEEIVQKFRKAVTDFTSEVTYDPAGRAGVSNIVAVHAAVTGLSVEEVVRRSAGMNTARYKLAVADAVIEKFAPIKREIEKLKLDKDHLEKVLQIGSAKAKELAYTVCQEVKKLVGFL
inactive: SARS-CoV-2 E 0.0241 | SARS-CoV-2 M 0.0175 | SARS-CoV-2 N -0.0238 | SARS-CoV-2 NSP1 = 0.119 | SARS-CoV-2 NSP10 = 0.0246 | SARS-CoV-2 NSP12 = -0.0216 | SARS-CoV-2 NSP13 = 0.0183 | SARS-CoV-2 NSP14 = -0.0616 | SARS-CoV-2 NSP15 = 0.0607 | SARS-CoV-2 NSP16 = -0.102 | SARS-CoV-2 NSP2 = -0.128 | SARS-CoV-2 NSP4 = -0.0438 | SARS-CoV-2 NSP5 = -0.0126 | SARS-CoV-2 NSP6 = 0.0107 | SARS-CoV-2 NSP7 = 0.0159 | SARS-CoV-2 NSP8 = 0.021 | SARS-CoV-2 NSP9 = 0.0542 | SARS-CoV-2 ORF10 = 0.0405 | SARS-CoV-2 ORF3A 0.0366 | SARS-CoV-2 ORF3B 0.00456 | SARS-CoV-2 ORF6 = 0.00323 | SARS-CoV-2 ORF7A 0.0433 | SARS-CoV-2 ORF7B -0.00361 | SARS-CoV-2 ORF8 = 0.0207 | SARS-CoV-2 ORF9B -0.0219 | [1] 0.0769 | SARS-CoV-2 S -0.0628

B4: XKR3, Q5GH77 (protein)
chain: METVFEEMDEESTGGVSSSKEEIVLGQRLHLSFPFSIIFSTVLYCGEVAFGLYMFEIYRKANDTFWMSFTISFIIVGAILDQIILMFFNKDLRRNKAALLFWHILLLGPIVRCLHTIRNYHKWLKNLKQEKEETQVSITKRNTMLEREIAFSIRDNFMQQKAFKYMSVIQAFLGSVPQLILQMYISLTIREWPLNRALLMTFSLLSVTYGAIRCNILAIQISNDDTTIKLPPIEFFCVVMWRFLEVISRVVTLAFFIASLKLKSLPVLLIIYFVSLLAPWLEFWKSGAHLPGNKENNSNMVGTVLMLFLITLLYAAINFSCWSAVKLQLSDDKIIDGRQRWGHRILHYSFQFLENVIMILVFRFFGGKTLLNCCDSLIAVQLIISYLLATGFMLLFYQYLYPWQSGKVLPGRTENQPEAPYYYVNIEKTEKNKNKQLRNYCHSCNRVGYFSIRKSMTCS
inactive: SARS-CoV-2 E 0.148 | SARS-CoV-2 M 0.0424 | SARS-CoV-2 N 0.0113 | SARS-CoV-2 NSP1 = 0.0633 | SARS-CoV-2 NSP10 = 0.00322 | SARS-CoV-2 NSP12 = 0.04 | SARS-CoV-2 NSP13 = 0.00974 | SARS-CoV-2 NSP14 = 0.144 | SARS-CoV-2 NSP15 = -0.0342 | SARS-CoV-2 NSP16 = 0.00736 | SARS-CoV-2 NSP2 = -0.0683 | SARS-CoV-2 NSP4 = 0.0958 | SARS-CoV-2 NSP5 = -0.027 | SARS-CoV-2 NSP6 = 0.00696 | SARS-CoV-2 NSP7 = 0.0528 | SARS-CoV-2 NSP8 = 0.0227 | SARS-CoV-2 NSP9 = -0.0112 | SARS-CoV-2 ORF10 = 0.00692 | SARS-CoV-2 ORF3A -0.0425 | SARS-CoV-2 ORF3B 0.00918 | SARS-CoV-2 ORF6 = 0.0243 | SARS-CoV-2 ORF7A 0.0473 | SARS-CoV-2 ORF7B -0.0154 | SARS-CoV-2 ORF8 = 0.0382 | SARS-CoV-2 ORF9B 0.0155 | [1] 0.0318 | SARS-CoV-2 S 0.0191
